Results taken from PubChem BioAssay AID588342 (National Center for Advancing Translational Sciences (NCATS), 2011).
Screen size: about 360,000 compounds; about 25,000 (6.9%) were called active. The inconclusive results got no clear call from the source; some entries with a clear call stand among them for comparison. Calls follow the shape of the dose curve; as a rule, active = well fitted inhibition curve with a large enough effect; inconclusive = small, poorly fitted or top-dose-only effect; inactive = flat fitted curve, though single readings scatter. Where the call is inconclusive, the potency comes from a doubtful curve fit.

Target: Luciferin 4-monooxygenase (Photinus pyralis) (UniProt P08659)
UniProt P08659, sequence (P08659 whole entry, looked up): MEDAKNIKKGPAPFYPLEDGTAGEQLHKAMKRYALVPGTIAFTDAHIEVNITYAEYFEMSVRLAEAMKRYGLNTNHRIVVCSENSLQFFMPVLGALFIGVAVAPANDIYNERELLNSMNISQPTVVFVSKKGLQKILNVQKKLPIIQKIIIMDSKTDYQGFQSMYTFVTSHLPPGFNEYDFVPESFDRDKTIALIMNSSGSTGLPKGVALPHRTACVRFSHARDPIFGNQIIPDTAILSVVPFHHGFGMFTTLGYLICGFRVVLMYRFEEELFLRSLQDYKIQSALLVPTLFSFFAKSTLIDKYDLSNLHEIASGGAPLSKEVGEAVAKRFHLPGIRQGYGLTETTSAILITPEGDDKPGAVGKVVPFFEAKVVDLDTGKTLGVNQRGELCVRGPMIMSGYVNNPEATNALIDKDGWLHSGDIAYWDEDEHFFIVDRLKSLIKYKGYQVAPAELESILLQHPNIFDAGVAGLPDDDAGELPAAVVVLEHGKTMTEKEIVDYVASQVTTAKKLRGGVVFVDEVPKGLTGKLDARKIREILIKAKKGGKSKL
Assay: qHTS profiling assay for firefly luciferase inhibitor/activator using purifed enzyme and Km concentrations of substrates (counterscreen for miR-21 project); also: nearly all actives have a fitted effect of over 55% in size;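 as to activity change, negative = inhibition: plate controls were vehicle for no effect and reference inhibitor for full effect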
Details: purified FLuc, luminescence inhibition; activity change, negative = inhibition: at 57.5 µM (top of the series)
Summary of the method: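 Purified P. pyralis luciferase (10nM final) with 10uM D-luciferin and 10uM ATP (Km levels) in 50mM Tris acetate pH 7.5, 10mM Mg acetate, 0.01% Tween-20, 0.05% BSA; qHTS 6-point titration, ~60 µM downward; luminescence read.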
Potency is read from the fitted curve at half-maximal effect; tags tell the direction and shape of the fitted curve.

SMILES | activity change, negative = inhibition | Potency
CCC1(c2ccc(F)cc2)NC(=O)N(CC(=O)NCc2ccccc2Cl)C1=O (centres undefined) | inactive: 0.0416% | –
COc1cc(OC)cc(C(=O)N2CCC3(CC2)NCCc2[nH]cnc23)c1 | inactive: 0.897% | –
COc1ccc(OCC(=O)Nc2nc3c(s2)CCCC3)cc1 | – | inconclusive: 26.9 µM [inhibitor, single point]
Clc1ccc(CO/N=C2\CCCc3nonc32)cc1 | – | inconclusive: 23.9 µM [inhibitor, single point]
CCOc1ccc(NC(=O)C2CCCN(c3nn4c(=O)cc(C)nc4s3)C2)cc1 (centres undefined) | – | inconclusive: 23.9 µM [inhibitor, single point]
CCc1ccc(-n2nnc(-c3nc(-c4ccccc4)no3)c2C)cc1 | – | active: 2.13 µM
COc1cccc(C(=O)NCC(=O)OCC(=O)c2ccccc2)c1 | – | inconclusive: 26.9 µM [inhibitor, single point]
CCN(CC)C(=O)c1ccc(COc2ccccc2Br)o1 | – | inconclusive: 19 µM [inhibitor, partial curve]
COc1cccc(C(=O)Nc2cccc(OCC(=O)c3ccccc3)c2)c1 | – | active: 12 µM
COc1ccccc1Nc1nc(-c2cccnc2)cs1 | – | active: 13.5 µM
CC1S/C(=N/N=C/c2cccc([N+](=O)[O-])c2)NC1=O (centres undefined) | – | inconclusive: 23.9 µM [inhibitor, single point]
Cc1ccc(C(=O)OCC(=O)NCc2ccccc2)cc1S(=O)(=O)N1CCCCC1 | – | inconclusive: 30.1 µM [inhibitor, partial curve, poor fit]
Cc1ccc(C(=O)OC(C)C(=O)c2cc(C)c(C)cc2C)o1 (centres undefined) | – | inconclusive: 23.9 µM [inhibitor, partial curve, poor fit]
COCCn1c(C)cc(C(=O)CSc2ccc(NC(C)=O)cc2)c1C | – | inconclusive: 23.9 µM [inhibitor, partial curve, poor fit]
COc1cc(C(=O)Nc2cccc(NC(=O)c3cccs3)c2)cc(OC)c1OC | – | active: 23.9 µM
O=C(c1cc(COc2c(F)cccc2F)on1)N1CCCCCC1 | – | inconclusive: 26.9 µM [inhibitor, single point]
O=C(c1ccc(Cl)c(S(=O)(=O)NCc2ccccc2)c1)N1CCN(c2ccccn2)CC1 | inactive: -1.2% | –
Cc1cccc2cc(CN(Cc3nnnn3Cc3ccco3)C3CCCC3)c3nnnn3c12 | inactive: 16% | –
Nn1c(C2COc3ccccc3O2)n[nH]c1=S (centres undefined) | – | inconclusive: 30.1 µM [inhibitor, partial curve, poor fit]
O=[N+]([O-])c1ccc(O)c(/C=N/Nc2ncnc3c2cnn3-c2ccccc2)c1 | – | inconclusive: 21.3 µM [inhibitor, single point]
COc1cc(C)ccc1OCCOc1c(Cl)cc(Cl)cc1Cl | – | inconclusive: 23.9 µM [inhibitor, partial curve, poor fit]
Cc1cccc(-c2oc3ccc(-c4ccc5c(c4)OCO5)cc3c2/C=C/c2ccc(N)cc2)c1 | inactive: 0.132% | –
CCCCn1c(N)c(N(CCOC)C(=O)c2cc(-c3ccc(F)cc3)nc3ccccc23)c(=O)[nH]c1=O | inactive: -1.77% | –

SMILES | activity change, negative = inhibition | Potency
O=C(NCc1ccc(F)cc1)C1CCN(C(=O)c2ccc(-n3ccc4ccccc43)s2)CC1 | inactive: -14.3% | –
O=C(Nc1cccc(C(=O)Nc2ccc(Br)cc2)c1)c1ccccc1 | – | inconclusive: 16.9 µM [inhibitor, partial curve]
CCOC(=O)N1CCN(C(=O)c2cc3cc(F)ccc3[nH]2)CC1 | – | inconclusive: 42.6 µM [inhibitor, partial curve, poor fit]
Cc1ccc(CN2CCCn3nc(C(=O)NCCC(C)C)cc3C2=O)cc1 | inactive: -3.86% | –
COc1ccc(-c2noc(=O)n2Cc2ccccc2F)cc1 | inactive: 4.09% | –
CCCOc1ccc(N2C(=O)CC(N(Cc3ccc(OC)cc3)C(=S)Nc3ccccc3)C2=O)cc1 (centres undefined) | inactive: -5.22% | –
CCc1cc2cc(C)cc(C)c2[nH]c1=S | – | inconclusive: 19 µM [inhibitor, partial curve]
COc1ccc(N(CC(=O)Nc2ccc(F)c(F)c2)S(=O)(=O)c2c(C)[nH]c(=O)[nH]c2=O)cc1 | – | inconclusive: 23.9 µM [inhibitor, partial curve, poor fit]
O=C(/C=C\Nc1ccc2c(c1)OCO2)c1ccc(Cl)s1 | – | active: 0.239 µM
c1ccc(-c2cn3c(n2)CCc2ccc4cccnc4c2-3)cc1 | – | active: 10.7 µM
N#Cc1ccc(N/N=C/c2ccccc2)c([N+](=O)[O-])c1 | inactive: -2.27% | –
CSc1ccc(/C=N\NC(=O)CNc2ccc(C)cc2)cc1 | – | inconclusive: 21.3 µM [inhibitor, partial curve, poor fit]
Cc1cc2cc(CNC(=O)Cc3ccc([N+](=O)[O-])cc3)ccc2[nH]1 | – | inconclusive: 37.9 µM [inhibitor, single point]
O=C(OCc1cccc([N+](=O)[O-])c1)c1cccnc1 | inactive: -10.1% | –
N#C/C(=C\c1ccc[nH]1)C(=O)Nc1ccccc1F | – | inconclusive: 5.36 µM [inhibitor, full curve]
CCCC(C)NC(=O)c1ccc(OCc2ccc(Cl)cc2)c(OC)c1 (centres undefined) | – | inconclusive: 23.9 µM [inhibitor, partial curve, poor fit]
COc1cccc(NS(=O)(=O)c2ccc3[nH]cc(C(=O)NCCCOC(C)C)c(=O)c3c2)c1 | – | inconclusive: 16.9 µM [inhibitor, partial curve, poor fit]
COc1ccc(-c2sc3cc4c(cc3c2C#CC2(N)CCCCC2)OCO4)cc1 | – | inconclusive: 6.75 µM [inhibitor, partial curve, poor fit]
O=C(Nc1cccc(C2OCCCO2)c1)c1cccs1 | – | inconclusive: 37.9 µM [inhibitor, partial curve, poor fit]
O=C(/C=C/c1ccc(Br)cc1)c1ccc(NC(=O)c2ccco2)cc1 | – | inconclusive: 23.9 µM [inhibitor, single point]
COc1cccc(CNC(=O)c2c(C)nn(-c3cccc(C)c3)c2-n2cccc2)c1 | – | inconclusive: 23.9 µM [inhibitor, partial curve, poor fit]
CCCCN(C(=O)c1ccc(NC(=O)C(C)C)cc1)c1ccccc1 | inactive: 3.52% | –
N#CC1=C(N)SC2(CCCCC2)SC1c1ccccc1 (centres undefined) | – | inconclusive: 21.3 µM [inhibitor, partial curve, poor fit]

SMILES | activity change, negative = inhibition | Potency
Cc1ccc(-c2c3c([nH]c(=S)c2C#N)CCCC3)o1 | – | inconclusive: 13.5 µM [inhibitor, partial curve]
O=C(/C(N=Nc1cccc([N+](=O)[O-])c1)=C(/O)c1ccc(Br)cc1)C(F)(F)F | inactive: 3.46% | –
Cc1ccc(-n2ncc(-c3nnc(SCC(=O)NC4CCCC4)o3)c2N)cc1C | – | inconclusive: 30.1 µM [inhibitor, single point]
O=C(CSc1ccc2ccccc2n1)c1ccc2c(c1)OCO2 | – | inconclusive: 26.9 µM [inhibitor, single point]
Cc1ccc(-c2ccc(/C=N/N3C(=O)C4C5C=CC(C6CC56)C4C3=O)o2)c([N+](=O)[O-])c1 (centres undefined) | – | inconclusive: 19 µM [inhibitor, partial curve, poor fit]
O=C(CSCC(=O)Nc1ccccc1)N/N=C/c1c(O)ccc2ccccc12 | – | inconclusive: 19 µM [inhibitor, partial curve]
C=CCn1c(=O)c(C(=O)Nc2ccccc2S(N)(=O)=O)c(O)c2ccccc21 | – | inconclusive: 13.5 µM [inhibitor, partial curve]
Cc1ccc(C(=O)COC(=O)c2cc(-c3ccccc3)nc3ccccc23)cc1C | inactive: -19.5% | –
COc1cccc(/C=c2\s/c(=C\C(=O)C(C)(C)C)[nH]c2=O)c1 | – | inconclusive: 19 µM [inhibitor, partial curve, poor fit]
O=C(CCn1c2c(c3ccccc31)CCCC2)NNC(=O)c1ccccc1[N+](=O)[O-] | – | inconclusive: 26.9 µM [inhibitor, partial curve, poor fit]
COc1ccc2cc(C(=O)Nc3ccc(O)cc3)sc(=O)c2c1OC | – | inconclusive: 26.9 µM [inhibitor, partial curve, poor fit]
O=C(Nc1cccc(Cl)c1)c1ccc2c(=O)n3c(nc2c1)CCCCC3 | – | active: 3.38 µM
O=C(OCC(=O)N1CCN(C(=O)c2ccco2)CC1)c1cc(S(=O)(=O)Nc2ccc(Cl)cc2)ccc1O | – | inconclusive: 33.8 µM [inhibitor, partial curve, poor fit]
Cc1ccc2c(Cl)c(C(=O)NCCc3ccccc3)sc2c1 | – | active: 6.01 µM
COc1ccc(NCc2ccsc2)cc1 | – | inconclusive: 30.1 µM [inhibitor, single point]
CC(C)(C)c1ccc(C(=O)Nc2cccc(S(=O)(=O)NC3=NCCC3)c2)cc1 | – | active: 0.135 µM
COC(=O)c1ccc(OCC(O)Cn2nnc3ccccc32)cc1 (centres undefined) | – | inconclusive: 26.9 µM [inhibitor, single point]
CCc1ccccc1NC(=O)c1cc(S(=O)(=O)N(CC)c2ccccc2)ccc1F | inactive: 0.775% | –
CCn1c(SCC(=O)Nc2ccc3c(c2)OCCO3)nnc1-c1ccncc1 | – | inconclusive: 26.9 µM [inhibitor, single point]
Cc1cc(C)c(C#N)c(SCc2nc3ccccc3c(=O)[nH]2)n1 | – | active: 2.39 µM
O=C(CSc1nc(=O)n2ccccc2n1)NCc1ccccc1Cl | inactive: 1.58% | –
O=C(Nc1ccc2[nH]c(=S)sc2c1)c1ccccc1 | – | inconclusive: 19 µM [inhibitor, partial curve]
O=C(COC(=O)CCCSc1nc2ccccc2[nH]1)NC(=O)NC1CCCC1 | – | inconclusive: 26.9 µM [inhibitor, partial curve, poor fit]
